Drawing on patent publication US5449684A (priority 1993, dated 1995), this text covers IC50 for two compounds.

This assay relates to HSV (Herpes simplex virus). As to the kind of experiment: organism not typed. From the text: The antiviral activities of these compounds have also been determinated "in vitro" against HSV (Herpes simplex virus) and VSV (Vesicular stomatitis virus). The methodology used to carry out this determination is described by Raymond J. Bergeron et.al. Biochem. Bioph. Res. Comm. 1984, 121(3), 848-854 and by Alan C. Shroeder et al. J. Med. Chem. 1981, 24 1078-1083.

For `CC(C(=O)O)C1CCC(C)(CCC2(O)C(C)CCC3C(C)(C)CCCC32C)OO1` (centres unmarked) [Mycaperoxide B, mycaperoxide B], the IC50 (usually the point on the concentration scale where inhibition reaches its midpoint) is above 1 µg/mL. With `CC(C(=O)O)C1CCC(C)(CCC2(C)C(C)CCC3C(C)(C)CCCC32O)OO1` (centres unmarked) [Mycaperoxide A, mycaperoxide A] the figure was above 1 µg/mL.
